# Results reported in article PMC7892437 (Frontiers in Pharmacology, 2021).
# pEC50, pIC50: −log10 of the molar value. “And” between values parts separate entries of the source, which are not always exact repeats. Equal entries are not always repeated. Where two headings read alike, the source gives them in different places.
# Key:
# [1] = system: VSV-SARS-CoV-2-Sdel18 pseudovirus; assay: microbe, parasite or virus in culture; type: cell-based
# [2] = system: SARS-CoV-2 BetaCoV/Shenzhen/SZTH-003/2020 strain; assay: microbe, parasite or virus in culture; type: cell-based; settings: Severe acute respiratory syndrome coronavirus 2, Vero, 120 h
# EBOV-76 = settings: strain EBOV-76; ref Johansen et al., 2013; cited from earlier work
compound,measurement,setting,value
CCCCc1oc2ccccc2c1C(=O)c1cc(I)c(OCCN(CC)CC)c(I)c1.Cl [Amiodarone (hydrochloride)],pIC50,[1]; read-out: IC50,~5.35 and 5.35
CN1CCC[C@@H]1CCO[C@](C)(c1ccccc1)c1ccc(Cl)cc1.O=C(O)/C=C/C(=O)O [Clemastine (fumarate)],pIC50,[1]; read-out: IC50,5.08
same,IC90,[1]; read-out: IC90,< 50 µM and 29.9 µM
same,cytotoxicity compared with the other selected drugs,BHK21-hACE2 cells,more serious cytotoxic than other drugs
CCN(CC)CCOc1ccc(C(=C(Cl)c2ccccc2)c2ccccc2)cc1 [Clomiphene (citrate)],pIC50,"[1]; Pseudovirus, read-out: Co-treatment IC50",5.02
same,IC90,"[1]; Pseudovirus, read-out: Pre-treatment IC90",10.2 µM
same,pIC50,[2],5.01
CCN(CC)CCOc1ccc(C(=C(Cl)c2ccccc2)c2ccccc2)cc1 [Clomiphene],pEC50,EBOV-76,5.42
